# According to PubChem BioAssay AID662 (National Center for Advancing Translational Sciences (NCATS), 2007):
# Screen size: about 71,000 compounds; about 1,800 (2.5%) were called active. The shares of active, inactive and inconclusive entries below differ from those in the screen. Calls follow the shape of the dose curve; as a rule, active = well fitted activation curve with a large enough effect in the signal ratio, with a control signal flat (not every such curve was filed as active); inconclusive = small, poorly fitted or top-dose-only effect, or effect the other way, or a change in a side signal; inactive = flat fitted curve, though single readings scatter; the % refers to the signal ratio. Potencies beside an inconclusive call are fits to weak or partial responses and may not hold up.
# Assay: Cell signaling CRE-BLA (Fsk stim); as to activity change, negative = inhibition: % of control where 0% means no effect
# Details: CHO CRE-bla reporter (cAMP response element driving beta-lactamase), forskolin EC10, beta-lactamase ratio
# Source text: NIH Molecular Libraries Screening Centers Network [MLSCN]
# NIH Chemical Genomics Center [NCGC]
# Assay Provider: Marshall W. Nirenberg, U.S. National heart lung & blood institute
# Memories persist for different lengths of time, from seconds or minutes to a lifetime. There are two kinds of memory: short-term memory (STM) and long-term memory (LTM). STM lasts for minutes to hours, which maybe mediated by modifications of molecules involved in synaptic functions. LTM lasts for days or longer, and may be due to the formation of new synapses or restructuring of existing synapses. LTM, but not STM, requires gene transcription and synthesis of proteins. CREB (cyclic-AMP Responsive Element Binding Protein) is one of the candidates plays an important role for enhancement of some types of LTM. CREB, a family of transcription factors, regulates the transcription of genes containing cAMP Responsive Elements (CRE). CRE is a nucleotide sequence often found in the promoter regions of genes that are binding sites for CREB.
# Using a beta-lactamase reporter-gene under control of cAMP responsive element, a cell-based assay [CellSensor(TM) CRE-bla CHO developed by Invitrogen Corp.] was used to measure forskolin-induced signaling. Library compounds were measured for their ability to modulate positively or negatively the action of EC10 NKH 477, a water soluble forskolin, on reporter gene activity. Compounds were screened in a titration series in 1536-well format. Positive and negative modulators were identified based on the AC50 values derived from the screening data.
# NCGC Assay Protocol Summary
# 2000 cells/5uL in Opti-MEM medium containing 0.5% dialyzed FBS, 0.1 mM NEAA, 1 mM sodium pyruvate and 10 mM HEPES was dispensed into 1536-well plates and cells were cultured at 37 degrees Celsius overnight. […] And then the plates were incubated at 37 degrees Celsius for 3 hours. 1 uL of CCF4-dye mixture was added to each well. After incubated at room temperature for 2 hours the plates were measured on an EnVision plate reader at Excitation 405nm, Emission1=460nm and Emission 2=530nm. The %Activity was determined from the ratio of 460nm/530nm.
# Keywords: NIH Roadmap, MLSCN, MLSMR, qHTS, NCGC, CRE, beta-lactamase reporter-gene assay.
# [1] = activity change, negative = inhibition: at 38.2 µM (top of the series) unless noted
# Potency is read from the fitted curve at half-maximal effect; tags tell the direction and shape of the fitted curve.
structure (smiles),measurement,setting,value
CCNS(=O)(=O)c1ccc(NC(=O)Cc2ccc(F)cc2)cc1,"activity change, negative = inhibition",[1],inconclusive: 7.65%
CCOc1ccccc1NC(=O)c1ccccc1-c1nc(-c2ccccc2OC)no1,"activity change, negative = inhibition",[1],inconclusive: 6.82%
CN(CC[C@@H](Oc1ccc(-c2ccccc2)cc1)c1ccc(F)cc1)CC(=O)O,Potency,[1],"inconclusive: 15.8 µM [falling, partial curve, poor fit]"
Cc1ccc(NC(=O)COc2ccc(/C(N)=N/O)cc2)cc1C,Potency,[1],"inconclusive: 0.631 µM [rising, full curve]"
O=C1C(=O)N(CCN2CCOCC2)C(c2ccncc2)/C1=C(/O)c1ccc2c(c1)OCO2 (stereo unspecified),Potency,[1],"inconclusive: 3.16 µM [rising, single point]"
COCCNC(=O)CSc1nc2nc(C)cc(C)n2n1,"activity change, negative = inhibition",[1],inconclusive: -22.2%
COC(=O)C1=C(C)NC(=O)C1(Nc1nccs1)C(F)(F)F (stereo unspecified),"activity change, negative = inhibition",[1],inactive
CCC(CC)NC(=O)c1n[nH]c(=O)c2ccccc12,"activity change, negative = inhibition",[1],inactive
CN(Cc1ccco1)c1ncnc2ccc(-c3ccoc3)cc12,"activity change, negative = inhibition",[1],inconclusive: -28.1%
COc1ccc2[nH]c(=O)c(CN(CCN3CCCC3)C(=O)Nc3ccccc3Cl)cc2c1,"activity change, negative = inhibition",[1],inactive
CCCCCn1c(CN(C)Cc2ccccc2)nc2c1c(=O)n(C)c(=O)n2C,Potency,[1],"inconclusive: 25.1 µM [rising, single point]"
Cc1noc(C)c1CSc1nnc(-c2cc(Cl)ccc2Cl)n1N,"activity change, negative = inhibition",[1],inconclusive: 22.9%
CN(C)c1ccc(-c2cncnc2Nc2ccccc2)cc1,"activity change, negative = inhibition",[1],inactive
Cc1noc(C)c1-c1ccc2ncnc(N3CCN(C)CC3)c2c1,Potency,[1],"inconclusive: 12.6 µM [rising, partial curve]"
CN(C)c1ccc(C2=NOC(CN3C(=O)c4ccccc4S3(=O)=O)C2)cc1 (stereo unspecified),"activity change, negative = inhibition",[1],inconclusive: -4.22%
O=C(NCCc1ccc(Cl)cc1)C1CCN(S(=O)(=O)N2CCCC2)CC1,Potency,[1],"inconclusive: 0.00398 µM [falling, full curve, poor fit]"
Cn1cc(-c2nc3cnc(N4CCNCC4)nc3n(CCC#N)c2=O)c2ccccc21,Potency,[1],"inconclusive: 10 µM [rising, partial curve]"
CCOC(=O)CSc1ccc2nnc(-c3cccnc3)n2n1,Potency,[1],"inconclusive: 10 µM [rising, single point]"
CCOc1ccccc1-n1c(SCC(=O)NC(C)CC)nnc1-c1ccoc1C (stereo unspecified),"activity change, negative = inhibition",[1],inconclusive: 12.7%
CCC(C)C1C(C#N)=C(N)Oc2n[nH]c(-c3ccccc3)c21 (stereo unspecified),"activity change, negative = inhibition",[1],inactive
Clc1cccc(Nc2c3c(nc4ncnn24)CCC3)c1,"activity change, negative = inhibition",[1],inconclusive: 22.9%
COc1ccc(CCn2c(=N)c(C(=O)NCc3ccco3)cc3c(=O)n4cccc(C)c4nc32)cc1,Potency,[1],"inconclusive: 10 µM [rising, partial curve]"
Cn1c2ccccc2c2nnc(SCN3C(=O)c4ccccc4C3=O)nc21,Potency,[1],"inconclusive: 3.98 µM [rising, single point]"
COC(=O)CC1=C(C)C(=O)CC2C(C)(C)CCCC12C (stereo unspecified),"activity change, negative = inhibition",[1],inconclusive: 22.6% [at 7.6 µM]
COc1nc(-c2ccc(Cl)cc2)ccc1-c1noc(-c2ccncc2)n1,"activity change, negative = inhibition",[1],inactive
COc1ccc2nc(C)c3c(c2c1)OC(C)C3 (stereo unspecified),"activity change, negative = inhibition",[1],inactive
CCCCOC(=O)C(C#N)c1nc2ccccc2nc1N1CCN(Cc2ccc3c(c2)OCO3)CC1 (stereo unspecified),"activity change, negative = inhibition",[1],inconclusive: -13.4% [fluorescent]
COc1ccc2c(c1)S/C(=C\C(=O)c1ccncc1)N2C,Potency,[1],"inconclusive: 15.8 µM [rising, single point]"
c1ccc(CNc2ncnc3nc[nH]c23)cc1,"activity change, negative = inhibition",[1],inactive
Cc1ccc(S(=O)(=O)c2nc(C(C)(C)C)oc2N2CCOCC2)cc1,"activity change, negative = inhibition",[1],inconclusive: 26.3%
Cc1cc(C(=O)CSc2nn(-c3ccccc3)c(=S)s2)c(C)n1Cc1ccco1,"activity change, negative = inhibition",[1],inconclusive: 10.8%
N#Cc1ccc(CN2CCC3(CC2)CCN(C(=O)c2csnn2)CC3)cc1,"activity change, negative = inhibition",[1],inactive
COc1ccc(-c2csc(N3CCOCC3)n2)cc1OC,Potency,[1],"inconclusive: 15.8 µM [rising, partial curve]"
ClC/C=C/CCl,"activity change, negative = inhibition",[1],inactive
CCC(=O)N1CCc2cc(Br)cc(S(=O)(=O)NCCN3CCOCC3)c21,"activity change, negative = inhibition",[1],inactive
Cc1ccc(C)c(N2CCN(C(=O)C3CCN(S(=O)(=O)c4cccc5nsnc45)CC3)CC2)c1,Potency,[1],"inconclusive: 7.94 µM [falling, partial curve]"
COc1ccccc1NC(=O)Nc1ccc(Br)cn1,"activity change, negative = inhibition",[1],inconclusive: 0.308%
Cc1ccc(C(=O)CSc2nnc(CNc3nc(-c4ccccc4)cs3)n2C)cc1,"activity change, negative = inhibition",[1],inconclusive: 7.54%
COc1ccc2[nH]cc(CCNc3ncncc3-c3cccnc3)c2c1,"activity change, negative = inhibition",[1],inconclusive: 17.7%
Cc1ccc2cc(CCNS(=O)(=O)c3ccc(F)cc3)c(=O)[nH]c2c1,Potency,[1],"inconclusive: 10 µM [rising, partial curve]"
O=C(CSc1nnc(-c2ccco2)o1)NC(=O)C1COc2ccccc2O1 (stereo unspecified),"activity change, negative = inhibition",[1],inactive
COC(=O)c1[nH]c(=O)c2ccccc2c1OCc1ccccc1,Potency,[1],"inconclusive: 1.26 µM [rising, partial curve]"
NC(=O)CCCCC(N)=O,"activity change, negative = inhibition",[1],inactive
CCn1nc(C(=O)OCC(=O)c2c[nH]c3ccccc23)c2ccccc2c1=O,Potency,[1],active: 3.98 µM
O=C(Cn1cnc2c(nnn2Cc2ccc(F)cc2)c1=O)N1CCCCC1,"activity change, negative = inhibition",[1],inconclusive: 1.95%
c1cncc(-c2ccc3ncnc(N4CCNCC4)c3c2)c1,"activity change, negative = inhibition",[1],inconclusive: 29.6%
N#CC(C#N)=NNc1ccc2cn[nH]c2c1,Potency,[1],"inconclusive: 2.51 µM [falling, partial curve]"
CCOC(=O)c1cnc2c(C#N)c(C)nn2c1-c1ccccc1,Potency,[1],"inconclusive: 6.31 µM [rising, partial curve]"
COC(=O)c1[nH]c2cccc(OC)c2c1NC(=O)CCN1CCN(c2ccccc2OC)CC1,"activity change, negative = inhibition",[1],inactive
COc1ccc(-n2c(Cc3cccn3C)nnc2SCC(=O)Nc2cccc(OC)c2)cc1,"activity change, negative = inhibition",[1],inconclusive: -6.53%
COc1cc(C2=NOC(C(=O)NC3CCCCC3)C2)cc(OC)c1OC (stereo unspecified),"activity change, negative = inhibition",[1],inconclusive: 18%
N=c1c2c(-c3ccccc3)c(-c3ccccc3)oc2ncn1CCN1CCOCC1,Potency,[1],"inconclusive: 20 µM [falling, single point]"
N#CCCn1c(=O)c(-c2ccc(Cl)cc2)nc2cnc(Oc3ccccc3)nc21,Potency,[1],"inconclusive: 3.98 µM [rising, single point]"
CCOC(=O)c1c(C)c(C(=O)Nc2cc(F)ccc2F)c(C)n1C,"activity change, negative = inhibition",[1],inconclusive: 17.6%
CS(=O)(=O)N(CC(=O)N1CCN(c2ccccc2F)CC1)c1ccc2c(c1)OCCO2,"activity change, negative = inhibition",[1],inactive
O=c1c2ccccc2nc(SCc2nnc(-c3ccccc3Br)o2)n1Cc1ccco1,Potency,[1],"inconclusive: 12.6 µM [rising, partial curve]"
CNc1nc(Nc2ccc(C(C)=O)cc2)nc(OC(C(F)(F)F)C(F)(F)F)n1,Potency,[1],"inconclusive: 3.98 µM [rising, partial curve, poor fit]"
Cn1cccc1C(=O)N1CCC[C@@]2(CCN(Cc3cc(C(F)(F)F)cc(C(F)(F)F)c3)C2)C1,"activity change, negative = inhibition",[1],inconclusive: 5.31%
Cc1ccc2c(c1)c1ncnc(N3CCc4ccccc4C3)c1n2C,Potency,[1],"inconclusive: 1.26 µM [rising, partial curve]"
N#Cc1cccc(-c2nnc(SCc3ccccc3C#N)o2)c1,Potency,[1],"inconclusive: 10 µM [rising, partial curve]"
CCOC(=O)N1CCC(=C(C#N)C(=O)Nc2cc(OC)ccc2OC)CC1,"activity change, negative = inhibition",[1],inconclusive: 5.44%
Cc1c(C(=O)NCc2ccc3c(c2)OCO3)sc2nc(-c3ccc(F)cc3)cn12,Potency,[1],"inconclusive: 10 µM [rising, single point]"
CCCOc1ccccc1-c1nc2n[nH]nc2c(=O)[nH]1,"activity change, negative = inhibition",[1],inconclusive: 22.5%
same,"activity change, negative = inhibition",at 17.1 µM (top of the series),inactive: 7.75%
same,"activity change, negative = inhibition",at 38.2 µM (top of the series),inactive: -7.02%
CCOC(=O)c1cnc(Nc2ccc(OCC)cc2)nc1C,"activity change, negative = inhibition",[1],inconclusive: 28.8%
CCCOc1ccc(CSc2nnc(CCC)n2N)cc1,Potency,[1],"inconclusive: 5.01 µM [falling, single point]"
COc1ccc(Cc2nnc(NC(=O)Cc3cccs3)s2)cc1OC,Potency,[1],"inconclusive: 12.6 µM [rising, partial curve]"
CC(C)OC(=O)CSc1nnc(-c2ccco2)n1N,"activity change, negative = inhibition",[1],inactive
COc1c(O[C@H]2O[C@@H](CO)[C@@H](O)[C@@H](O)[C@@H]2O)cc2c(c1OC)-c1ccc(SC)c(=O)cc1[C@H](NC(C)=O)CC2,"activity change, negative = inhibition",[1],inactive
N#Cc1sc2nc(-c3ccccc3)cc(-c3ccco3)c2c1N,Potency,[1],"inconclusive: 25.1 µM [falling, single point]"
COc1ccc(OC)c(NC(=O)CSc2nnnn2-c2ccccc2F)c1,"activity change, negative = inhibition",[1],inactive
COc1ccccc1-n1c(SCC(=O)Nc2ccccc2C)nc(O)cc1=O,"activity change, negative = inhibition",[1],inconclusive: -15% [at 7.6 µM]
Cn1c(C(=O)N2CCN(C(=O)c3ccco3)CC2)cc2c(=O)n3ccccc3nc21,Potency,[1],active: 12.6 µM
O=C(c1cnn2c(C(F)(F)F)cc(-c3ccc4c(c3)OCO4)nc12)N1CCCC1,"activity change, negative = inhibition",[1],inactive
CC(=O)Nc1nc(NC(C)=O)c2[nH]c(CO)nc2n1,"activity change, negative = inhibition",[1],inactive: 6.79% [at 7.6 µM]
COc1ccc(CNc2ncncc2-c2cccc(NS(C)(=O)=O)c2)c(OC)c1,Potency,[1],"inconclusive: 5.01 µM [rising, partial curve]"
O=C1c2ccccc2C(=O)N1c1ccc(-c2nc3ccccc3o2)cc1,"activity change, negative = inhibition",[1],inactive
Cc1ccc(S(=O)(=O)N2CCOCC2)cc1C(=O)N1C(=O)c2cccc(N)c2C1=O,"activity change, negative = inhibition",[1],inactive
Cc1cc2c(=O)n(CC(=O)N3CCN(c4ccccc4)CC3)cnc2s1,"activity change, negative = inhibition",[1],inconclusive: -2.45%
N#Cc1c(NC(=O)CSc2ncc(-c3ccccc3)n2CC2CCCO2)sc2c1CCCC2 (stereo unspecified),"activity change, negative = inhibition",[1],inconclusive: 1.77%
